The source of these data is paper PMC11685948.

These are yes or no findings as the source states them, for the method shown. Binding seen in cells or lysates may run through a third protein. Some results given as binding are weak or reduced against the parent protein; the word gives no strength.

The experiment has as its target ZAP-L-FLAG (human), Q7Z2W4. The experiment is described as follows: co-IP; anti-FLAG IP of doxycycline-induced ZAP-L-FLAG or ZAP-N-FLAG from RNase A-treated lysates of 293T ZAP-/- TRIM25-/- KHNYN-/- N4BP1-/- cells transfected with 3xHA-tagged ZAP proteins; washes with 500 mM KCl; western blot (Fig. 2d). The conditions noted are these: remark: other sources report otherwise.

B1: ZAP-L-3xHA, Q7Z2W4-1 1-902 (protein)
chain: MADPEVCCFITKILCAHGGRMALDALLQEIALSEPQLCEVLQVAGPDRFVVLETGGEAGITRSVVATTRARVCRRKYCQRPCDNLHLCKLNLLGRCNYSQSERNLCKYSHEVLSEENFKVLKNHELSGLNKEELAVLLLQSDPFFMPEICKSYKGEGRQQICNQQPPCSRLHICDHFTRGNCRFPNCLRSHNLMDRKVLAIMREHGLNPDVVQNIQDICNSKHMQKNPPGPRAPSSHRRNMAYRARSKSRDRFFQGSQEFLASASASAERSCTPSPDQISHRASLEDAPVDDLTRKFTYLGSQDRARPPSGSSKATDLGGTSQAGTSQRFLENGSQEDLLHGNPGSTYLASNSTSAPNWKSLTSWTNDQGARRKTVFSPTLPAARSSLGSLQTPEAVTTRKGTGLLSSDYRIINGKSGTQDIQPGPLFNNNADGVATDITSTRSLNYKSTSSGHREISSPRIQDAGPASRDVQATGRIADDADPRVALVNDSLSDVTSTTSSRVDDHDSEEICLDHLCKGCPLNGSCSKVHFHLPYRWQMLIGKTWTDFEHMETIEKGYCNPGIHLCSVGSYTINFRVMSCDSFPIRRLSTPSSVTKPANSVFTTKWIWYWKNESGTWIQYGEEKDKRKNSNVDSSYLESLYQSCPRGVVPFQAGSRNYELSFQGMIQTNIASKTQKDVIRRPTFVPQWYVQQMKRGPDHQPAKTSSVSLTATFRPQEDFCFLSSKKYKLSEIHHLHPEYVRVSEHFKASMKNFKIEKIKKIENSELLDKFTWKKSQMKEEGKLLFYATSRAYVESICSNNFDSFLHETHENKYGKGIYFAKDAIYSHKNCPYDAKNVVMFVAQVLVGKFTEGNITYTSPPPQFDSCVDTRSNPSVFVIFQKDQVYPQYVIEYTEDKACVIS
Regarding B1, the binding result was “binds”.
